In PubChem BioAssay AID485294 (National Center for Advancing Translational Sciences (NCATS), 2010):
Values joined by “and” are separate entries in the source; they are usually repeats but may differ in a detail not shown here. Identical values can stand only once. About 150 (0.041%) of roughly 370,000 compounds were called active. The shares of active, inactive and inconclusive entries below differ from those in the screen. The call rests on the fitted dose curve; in most records, active means well fitted inhibition curve with a large enough effect; inconclusive means small, poorly fitted or top-dose-only effect; inactive means flat fitted curve, though single readings scatter. Potencies beside an inconclusive call are fits to weak or partial responses and may not hold up.

target: Beta-lactamase (Escherichia coli (strain K12)) (UniProt P00811); assay: qHTS Inhibitors of AmpC Beta-Lactamase (assay with detergent); conditions: AmpC hydrolysis of nitrocefin, absorbance 480 nm, 0.01% Triton; series mostly up to 114 µM; further: nearly all actives have a fitted effect of over 25% in size
Summary of the method: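 AmpC (5.3 nM in the dispensed reagent) in 20 mM phosphate pH 7.0 with 0.01% (detergent screen) or 0.0001% Triton X-100 was preincubated with compounds for 15 min at room temperature. Nitrocefin was then added from an 800 uM solution, and hydrolysis was followed at 480 nm.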
Potency means the concentration at half of the fitted maximal effect; tags describe the fitted curve by direction and shape.

Sequence of UniProt P00811 (P00811 whole entry, looked up): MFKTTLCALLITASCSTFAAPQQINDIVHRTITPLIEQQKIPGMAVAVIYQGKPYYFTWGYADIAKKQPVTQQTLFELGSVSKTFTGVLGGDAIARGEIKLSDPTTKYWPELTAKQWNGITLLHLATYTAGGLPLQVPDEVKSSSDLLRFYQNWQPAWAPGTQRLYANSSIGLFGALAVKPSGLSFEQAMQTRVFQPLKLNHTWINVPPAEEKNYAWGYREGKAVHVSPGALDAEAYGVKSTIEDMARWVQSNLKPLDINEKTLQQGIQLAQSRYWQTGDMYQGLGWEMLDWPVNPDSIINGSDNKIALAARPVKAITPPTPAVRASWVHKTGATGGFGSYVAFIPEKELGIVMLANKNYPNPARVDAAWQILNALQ

Question: `Cc1ccc(NC(=O)CCC(=O)N2Cc3ccccc3Oc3ncccc32)cc1` was tested. Which Potency did it give?
Answer: Its Potency is “inactive”.

Question: How did the Potency turn out when `COc1ccc(NC(=O)Cn2c(SCc3ccc(C)cc3)nc3cccnc32)c(OC)c1` was run?
Answer: Its Potency is “inactive”.

Question: With `Cc1cc(-c2nnc(CCC(=O)N(C)C(C)c3cccs3)o2)no1` (stereo not given) as the compound, how does the Potency read?
Answer: The Potency was “inactive”.

Question: With `CN(CC(=O)Nc1ccccc1Cl)CC(=O)Nc1ccccc1[N+](=O)[O-]` as the compound, how does the Potency read?
Answer: Its Potency is inconclusive: 28.2 µM [inhibitor, partial curve, poor fit].

Question: Which Potency does the source give for `CCOc1ccccc1NC(=O)C1CCCN(S(=O)(=O)c2cccc3nsnc23)C1` (stereo not given) here?
Answer: Its Potency is inconclusive: 100 µM [inhibitor, partial curve, poor fit].

Question: With `COc1ccc2c(c1)c1c(c(=O)n(-c3ccccc3C)c(=O)n1CC(=O)Nc1c(C)cccc1C)n2C` as the compound, how does the Potency read?
Answer: Its Potency is “inactive”.

Question: For `Cc1ccc(COC(=O)CN2C(=O)NC3(CCCC3)C2=O)cc1`, which Potency is on record?
Answer: The Potency was inconclusive: 0.631 µM [inhibitor, full curve, poor fit].

Question: For `O=C1CC(c2ccccc2)n2nc(NC(=O)c3cccnc3)nc2N1` (stereo not given), which Potency is on record?
Answer: Its Potency is inconclusive: 112 µM [inhibitor, partial curve, poor fit].

Question: Which Potency does the source give for `Nc1cc(-c2ccccc2)ccc1O` here?
Answer: The Potency was inconclusive: 0.316 µM [inhibitor, full curve, poor fit].

Question: For `CC(C)CCN(C)C1CCN(S(=O)(=O)c2ccc(F)cc2)CC1`, which Potency is on record?
Answer: The Potency was “inactive”.

Question: `O=C(Nc1ccc(Br)cn1)c1cccc2c1-c1ccccc1C2=O` was tested. Which Potency did it give?
Answer: Its Potency is inconclusive: 100 µM [inhibitor, single point].

Question: With `CCOc1ccc(Nc2cc3n(c(=O)n2)CCc2cc(OC)c(OC)cc2-3)cc1` as the compound, how does the Potency read?
Answer: The Potency was “inactive”.

Question: Which Potency does the source give for `COCC(=O)Nc1ccccc1C(=O)Nc1ccc(OC)cc1` here?
Answer: Its Potency is inconclusive: 50.1 µM [inhibitor, partial curve, poor fit].

Question: Which Potency does the source give for `Cn1c(CN2CCCCC2)nc2cc(NC(=O)c3ccc(F)cc3)ccc21` here?
Answer: Its Potency is inconclusive: 0.708 µM [inhibitor, full curve, poor fit].

Question: Which Potency does the source give for `CC(CNc1ccccc1O)C(=O)O` (stereo not given) here?
Answer: Its Potency is “inactive”.

Question: Which Potency does the source give for `Nc1nonc1C(=O)N/N=C/c1ccc(Br)o1` here?
Answer: The Potency was “inactive”.

Question: Which Potency does the source give for `O=C(Nc1ccccc1Br)C1CC(=O)N(c2ccc3c4c(cccc24)CC3)C1` (stereo not given) here?
Answer: Its Potency is inconclusive: 50.1 µM [inhibitor, partial curve, poor fit].

Question: Which Potency does the source give for `COC(=O)c1cc(S(=O)(=O)Nc2cccc(OC)c2)cn1C` here?
Answer: The Potency was inconclusive: 0.631 µM [inhibitor, full curve, poor fit].

Question: Which Potency does the source give for `CCS(=O)(=O)CCSc1nc(-c2ccc(Br)cc2)cc(-c2ccccc2)c1C#N` here?
Answer: Its Potency is “inactive”.

Question: How did the Potency turn out when `Cc1cccc(-n2c(Cc3cc(=O)[nH]c(=O)[nH]3)nnc2SCC(=O)NCC2CCCO2)c1` (stereo not given) was run?
Answer: The Potency was inconclusive: 0.631 µM [inhibitor, full curve, poor fit].

Question: Which Potency does the source give for `CCC1=NN2C(=N)/C(=C\c3ccc(OCc4cc(=O)n5nc(CC)sc5n4)c(OC)c3)C(=O)N=C2S1` here?
Answer: The Potency was inconclusive: 100 µM [inhibitor, single point].

Question: With `O=c1cc(Nc2ccc3c(c2)OCO3)[nH]c(=O)n1-c1ccc(Br)cc1` as the compound, how does the Potency read?
Answer: Its Potency is inconclusive: 0.631 µM [inhibitor, full curve, poor fit].

Question: `CC(C)[C@H](NC(=O)N1CC(=O)Nc2ccccc21)C(=O)N1CCC[C@H]1C(=O)O` was tested. Which Potency did it give?
Answer: Its Potency is inconclusive: 0.562 µM [inhibitor, full curve, poor fit].

Question: `CC12CCC(C(=O)N(c3cccc(Cl)c3)C1=O)C2(C)C` (stereo not given) was tested. Which Potency did it give?
Answer: The Potency was inconclusive: 1.58 µM [inhibitor, full curve, poor fit].

Question: For `CCOC(=O)c1ccc(NC(=O)CC2NCCNC2=O)cc1` (stereo not given), which Potency is on record?
Answer: Its Potency is “inactive and inconclusive: 89.1 µM [inhibitor, single point]”.

Question: For `COc1ccccc1N1CCN(C2CCCN(C(=O)CN3CCCCC3=O)C2)CC1` (stereo not given), which Potency is on record?
Answer: The Potency was inconclusive: 0.708 µM [inhibitor, full curve, poor fit].

Question: How did the Potency turn out when `FC(F)(F)c1nc2ccccc2n2c(-c3ccc(Cl)cc3)nnc12` was run?
Answer: The Potency was inconclusive: 56.2 µM [inhibitor, partial curve, poor fit].

Question: How did the Potency turn out when `Cc1cc(C)c(S(=O)(=O)n2cnc(C)c2)c(C)c1` was run?
Answer: Its Potency is “inactive”.

Question: `CC1=C(C(=O)OCCCCCl)C(c2cc3c(cc2Br)OCO3)NC(=O)N1` (stereo not given) was tested. Which Potency did it give?
Answer: The Potency was inconclusive: 100 µM [inhibitor, partial curve].

Question: `O=C(Cn1cnc2c(nnn2-c2ccc(F)cc2)c1=O)NCc1ccco1` was tested. Which Potency did it give?
Answer: Its Potency is “inactive”.

Question: With `NC(=S)N/N=C/c1ccc(C(F)(F)F)cc1` as the compound, how does the Potency read?
Answer: The Potency was “inactive”.

Question: For `COc1ccc(C2CC23N=C(c2ccccc2)OC3=O)cc1` (stereo not given), which Potency is on record?
Answer: Its Potency is inconclusive: 5.01 µM [inhibitor, full curve].

Question: For `O=C(c1ccc(Cl)c(Cl)c1)c1cnc(Nc2ccccc2)s1`, which Potency is on record?
Answer: Its Potency is “inactive”.

Question: For `N#CCCN(Cc1cccnc1)S(=O)(=O)c1ccc(S(=O)(=O)N2CCCCCC2)cc1`, which Potency is on record?
Answer: The Potency was inconclusive: 0.631 µM [inhibitor, full curve, poor fit].

Question: How did the Potency turn out when `O=C(OCc1ccc(F)cc1)c1ccc2ccccc2n1` was run?
Answer: Its Potency is inconclusive: 39.8 µM [inhibitor, full curve, poor fit].

Question: How did the Potency turn out when `O=C1C(C2=C(O)c3ccccc3C2=O)=Nc2ccccc21` was run?
Answer: The Potency was inconclusive: 5.01 µM [inhibitor, full curve, poor fit].

Question: `CS(=O)(=O)Nc1ccc2c(c1)C(=O)OC2` was tested. Which Potency did it give?
Answer: Its Potency is inconclusive: 1.58 µM [inhibitor, full curve, poor fit].

Question: Which Potency does the source give for `O=[N+]([O-])c1cc(S(=O)(=O)C(F)(F)F)ccc1Sc1nc2ccccc2s1` here?
Answer: Its Potency is “inactive”.

Question: Which Potency does the source give for `CCCCNC(=O)CCCCCn1c(=O)[nH]c2cc(C(=O)OC)ccc2c1=O` here?
Answer: The Potency was “inactive”.

Question: Which Potency does the source give for `CCOC(=O)c1cc(-c2ccc(C)cc2)n(CCC(=O)Nc2ccc(OC)c(OC)c2)c1C` here?
Answer: The Potency was “inactive”.

Question: How did the Potency turn out when `O=C(c1ccc(N2CCCC2=O)cc1)N1CCN(c2ccccc2)CC1` was run?
Answer: The Potency was inconclusive: 25.1 µM [inhibitor, full curve].

Question: How did the Potency turn out when `N#Cc1cn(-c2ccccc2)nc1-c1ccc2c(c1)OCCO2` was run?
Answer: The Potency was “inactive”.

Question: Which Potency does the source give for `COC(=O)Nc1ccc(S(=O)(=O)NNC(=O)c2c(O)c3ccccc3[nH]c2=O)cc1` here?
Answer: Its Potency is inconclusive: 89.1 µM [inhibitor, partial curve, poor fit].

Question: `CSc1sc(C(=O)O)c(C)c1C(C)=O` was tested. Which Potency did it give?
Answer: Its Potency is inconclusive: 0.708 µM [inhibitor, full curve, poor fit].

Question: How did the Potency turn out when `O=C(O)CSc1cc(C(=O)c2ccccc2O)cn2c(=O)c3c4c(sc3nc12)CCCC4` was run?
Answer: Its Potency is inconclusive: 28.2 µM [inhibitor, full curve, poor fit].

Question: Which Potency does the source give for `Clc1nc(Nc2ccc(N3CCOCC3)cc2)c2ccccc2n1` here?
Answer: Its Potency is “inactive”.

Question: With `CC(C)CCSc1nc2c(c(=O)[nH]c(=O)n2C)n1CCCc1ccccc1` as the compound, how does the Potency read?
Answer: The Potency was “inactive”.

Question: `Cc1n[nH]c(C)c1Sc1ccccc1[N+](=O)[O-]` was tested. Which Potency did it give?
Answer: The Potency was inconclusive: 5.62 µM [inhibitor, partial curve].

Question: With `CCN(C(=O)COC(=O)/C=C/c1ccc(C)o1)c1c(N)n(Cc2ccccc2)c(=O)[nH]c1=O` as the compound, how does the Potency read?
Answer: Its Potency is inconclusive: 10 µM [inhibitor, full curve, poor fit].

Question: Which Potency does the source give for `C[N+](C)(C)CC/C=C1/c2ccccc2CSc2ccccc21` here?
Answer: Its Potency is “inactive”.

Question: With `CCc1nnc(NS(=O)(=O)c2ccc(NC(=O)c3ccc(S(=O)(=O)N(CC)CC)cc3)cc2)s1` as the compound, how does the Potency read?
Answer: Its Potency is “inactive”.

Question: How did the Potency turn out when `O=c1cc(CN2CCN(c3ccccc3F)CC2)c2cc(O)c(-c3ccccc3)cc2o1` was run?
Answer: The Potency was “inactive”.

Question: Which Potency does the source give for `Fc1ccc(Cn2nnnc2C(c2cccs2)N2CCCCCC2)cc1` (stereo not given) here?
Answer: Its Potency is inconclusive: 100 µM [inhibitor, single point].

Question: Which Potency does the source give for `Cc1ccc(Cl)cc1N1CCN(C(=O)Cc2c(C(=O)O)[nH]c3ccc(Cl)cc23)CC1` here?
Answer: The Potency was inconclusive: 39.8 µM [inhibitor, partial curve, poor fit].

Question: For `COc1ccc(C(=O)/C=C/c2ccc(N3CCCCC3)c([N+](=O)[O-])c2)c(OC)c1`, which Potency is on record?
Answer: The Potency was “inactive”.

Question: For `COc1cnc(-c2ccccc2)nc1Oc1ccc(C(C)(C)C)cc1`, which Potency is on record?
Answer: The Potency was “inactive”.

Question: For `CCNC(=O)CC1C(=O)N(C)C(=S)N1NC(=O)c1ccc(Cl)cc1` (stereo not given), which Potency is on record?
Answer: The Potency was inconclusive: 44.7 µM [inhibitor, partial curve].

Question: `NC(=O)C1CCN(C(=O)CCSCc2ccc(Cl)c(Cl)c2)CC1` was tested. Which Potency did it give?
Answer: Its Potency is inconclusive: 39.8 µM [inhibitor, partial curve, poor fit].

Question: How did the Potency turn out when `O=C(CCn1c(=O)c2cccn2c2cccnc21)N1CCN(c2cccc(Cl)c2)CC1` was run?
Answer: The Potency was “inactive”.

Question: With `O=C(NCc1ccco1)/C(=C\c1ccco1)NC(=O)c1ccccc1Cl` as the compound, how does the Potency read?
Answer: The Potency was “inactive”.

Question: `Cc1ccc(NC(=O)CCCc2ccccc2)c([N+](=O)[O-])c1` was tested. Which Potency did it give?
Answer: Its Potency is “inactive”.

Question: Which Potency does the source give for `COC(=O)N1C(=O)[C@@](c2ccccc2)(C2CCCC2)N1C(=O)OC` here?
Answer: Its Potency is inconclusive: 112 µM [inhibitor, partial curve, poor fit].

Question: How did the Potency turn out when `Cc1occc1C(=O)N/N=C/C=C/c1ccccc1` was run?
Answer: Its Potency is inconclusive: 5.62 µM [inhibitor, full curve].

Question: Which Potency does the source give for `O=S(=O)(Nc1cc(S(=O)(=O)N2CCOCC2)ccc1NCC1CCCO1)c1ccc(F)cc1` (stereo not given) here?
Answer: Its Potency is “inactive”.

Question: How did the Potency turn out when `CC(C)CN(C(=O)C1CC1)C1CCS(=O)(=O)C1` (stereo not given) was run?
Answer: Its Potency is inconclusive: 89.1 µM [inhibitor, partial curve, poor fit].

Question: With `CSc1nnc([C@@H](N)Cc2c[nH]c3ccccc23)o1` as the compound, how does the Potency read?
Answer: The Potency was inconclusive: 0.708 µM [inhibitor, full curve, poor fit].

Question: Which Potency does the source give for `O=C(Cn1c(=O)oc2cc(S(=O)(=O)NC3CCCC3)ccc21)Nc1ccc(F)c(F)c1` here?
Answer: Its Potency is “inactive”.

Question: With `CCOc1ccc(S(=O)(=O)NC(Cc2cnc[nH]2)C(=O)O)cc1` (stereo not given) as the compound, how does the Potency read?
Answer: Its Potency is “inactive”.

Question: `CCOC(=O)COc1ccc(/C=C2/C(=O)NN(c3ccc(F)cc3)C2=O)cc1OC` was tested. Which Potency did it give?
Answer: The Potency was inconclusive: 100 µM [inhibitor, partial curve, poor fit].

Question: How did the Potency turn out when `O=C(O)c1ccc2c(c1)C(=O)N([C@]1(C(=O)O)C[C@H]1c1ccccc1)C2=O` was run?
Answer: The Potency was inconclusive: 0.631 µM [inhibitor, full curve, poor fit].
